Laboratory results taken from PubChem BioAssay AID1508642 (National Center for Advancing Translational Sciences (NCATS), 2021).
Hit rate of the full screen: of about 43,000 compounds, about 200 (0.47%) were called active. About 12% were inconclusive and are not listed. Calls follow the shape of the dose curve; as a rule, active = well fitted cell-killing curve with a large enough effect; inconclusive = small, poorly fitted or top-dose-only effect, or effect the other way; inactive = flat fitted curve, though single readings scatter. This is one part of the list.

Assay: Cell viability qHTS assay in S16 Pmp22-F2sN cells; also: nearly all actives have a fitted effect of over 65% in size
Settings: S16 Pmp22-F2sN Schwann cells viability, CellTiter-Glo, 24 h; series mostly up to 57.5 µM; activity change, negative = cytotoxicity: at the top concentration
Outline: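 Used to flag compounds lowering reporter output through toxicity, this quantitative HTS measures ATP-based CellTiter-Glo luminescence in S16 Pmp22-F2sN Schwann cells after 24 h compound exposure at 37C.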
% is scaled to controls: 0 for no effect and ±100 for the full control effect; potency is read from the fitted curve at half-maximal effect.

Row | Compound | activity change, negative = cytotoxicity | Potency
1 | Cc1ccc(-c2nnc3ccccc3c2C(=O)Nc2ccccc2F)cc1 | inactive: -1.65% | 
2 | CCOc1ccccc1C(=O)N(Cc1ccccc1F)C1CCS(=O)(=O)C1 (stereo not given) | inactive: 5.17% | 
3 | COc1cc(NC(=O)C(CCSC)NS(=O)(=O)c2ccc3c(c2)oc(=O)n3C)cc(OC)c1 (stereo not given) | inactive: -1.6% | 
4 | COc1ccc(NC(=O)CCc2c(C)nc3nc(CNC(=O)OC(C)(C)C)nn3c2C)cc1OC | inactive: 1.24% | 
5 | O=C(Nc1ccc(F)c(Cl)c1)C1CCCN(c2cnccn2)C1 (stereo not given) | inactive: -5.7% | 
6 | COc1ccc(S(=O)(=O)NCC(c2ccco2)N2CCN(c3ccc(F)cc3)CC2)cc1C (stereo not given) | inactive: -21.6% | 
7 | CC1CCN(S(=O)(=O)c2ccc3c(ccn3CCC(=O)NCc3ccc(N(C)C)cc3)c2)CC1 | inactive: -15.5% | 
8 | COc1cccc2cc(C(=O)NCCc3c(C)[nH]c4ccc(F)cc34)c(=O)oc12 | inactive: 10.2% | 
9 | CCc1ccccc1NC(=O)N1CCN(C(=O)c2nsc3ccccc23)CC1 | inactive: -0.0583% | 
10 | CC(=O)N1CCCC1c1nc2ccccc2n1Cc1ccccc1C (stereo not given) | inactive: 0.15% | 
11 | Cc1ccc(CN2C(=O)C3(c4ccccc42)N(c2cccc(F)c2)C(=O)CS3(=O)=O)cc1 (stereo not given) | inactive: -2.18% | 
12 | CCCCN(CC)CCNC(=O)c1cn(C)c(=O)c2c1c1ccccc1n2C | inactive: 23.2% | 
13 | Cc1ccccc1CN1CCC(CNc2ncnc3onc(-c4ccc(F)cc4)c23)CC1 | inactive: -22.8% | 
14 | COc1cc(NC(=O)NC(C)c2c(-n3cccc3)sc3c2CCCC3)cc(OC)c1OC (stereo not given) | inactive: -7.85% | 
15 | Oc1c(C(c2ccccc2F)N2CCN(Cc3ccccc3)CC2)sc2nc(-c3ccco3)nn12 (stereo not given) | inactive: 1.83% | 
16 | Cc1c(C(=O)N2CCC(c3nc4ccccc4s3)CC2)oc2ccc(Cl)cc12 | inactive: -0.788% | 
17 | COc1ccccc1N1CCN(S(=O)(=O)c2c(C)sc3ncn(CC(=O)N(C)c4ccc(Cl)cc4)c(=O)c23)CC1 | inactive: 0.582% | 
18 | CCNC(=O)c1c(NC(=O)Cc2coc3cc(C)cc(C)c23)sc2c1CCCC2 | inactive: -0.369% | 
19 | COCCn1c(=NC(=O)c2ccc3c(c2)OCCO3)sc2cc(C(=O)OC)ccc21 | inactive: -11.9% | 
20 | COc1ccc(C(=O)OC2=C(C(=O)c3ccccc3)N(C)S(=O)(=O)c3ccccc32)cc1OC | inactive: -18.8% | 

Row | Compound | activity change, negative = cytotoxicity | Potency
21 | Cc1ccc2c(CC(=O)Nc3ccc(S(=O)(=O)N4CCCCC4)cc3)coc2c1 | inactive: 1.9% | 
22 | Cc1ccc(Cl)cc1NC(=O)Cn1c(=O)oc2cc(S(=O)(=O)N3CCCC3)ccc21 | inactive: -2.82% | 
23 | Cc1ccc(-n2ncc3c(Nc4cccc(C)c4C)ncnc32)cc1 | inactive: 2.18% | 
24 | CCOc1ccccc1N(C)C(=O)C1CCCN(c2ncnc3c2nc2n3CCCCC2)C1 (stereo not given) | inactive: 2.97% | 
25 | Cc1cc(C)c2c(=O)nc(SCc3ccccc3C)n(C3CC3)c2n1 | inactive: -6.46% | 
26 | Cc1ccc(NC(=O)c2cc(-c3ccc(Br)s3)nc3ccccc23)cc1F |  | active: 31.6 µM
27 | CCOc1ccc(CCNC(=O)CCCn2c(=O)c3cccn3c3ccccc32)cc1 | inactive: 3.7% | 
28 | COc1ccc(C(=O)Nc2nnc(SCc3cc(=O)c4cc(C)cc(C)c4[nH]3)s2)cc1 | inactive: -7.79% | 
29 | Cn1c(=O)c2c(nc(SCC(=O)Nc3ccccc3F)n2Cc2ccc(Cl)cc2)n(C)c1=O | inactive: -1.43% | 
30 | CCc1ccccc1NC(=O)CCNS(=O)(=O)c1ccc2c(c1)CCN2C(=O)C1CC1 | inactive: 0.667% | 
31 | Cc1ccc(-n2ncc3c(NCCC4=CCCCC4)ncnc32)cc1 | inactive: 10.9% | 
32 | Cc1ccc(Cl)cc1NC(=O)C(C)n1nc(-c2ccccc2)ccc1=O (stereo not given) | inactive: -13.8% | 
33 | Cc1ccc(Cl)cc1N1CCN(C(=O)Cn2cnc3sc(C)c(S(=O)(=O)N4CCC(C)CC4)c3c2=O)CC1 | inactive: 1.6% | 
34 | COC(=O)c1scc(-c2ccc(C)cc2)c1S(=O)(=O)N1CCN(c2ccc(C(C)=O)cc2)CC1 | inactive: 11.2% | 
35 | Cc1nc2nc(NCc3ccc(Cl)cc3)[nH]n2c(=O)c1Cc1ccccc1 | inactive: -0.677% | 
36 | CCOC(=O)c1c(C)oc2nc(C)nc(NCc3ccc(F)cc3)c12 | inactive: -1.38% | 
37 | CCCn1c(CCC(=O)Nc2ccc(OCC)cc2)nc2cccnc21 | inactive: 8.55% | 
38 | CC1CCc2c(sc(NC(=O)C3c4ccccc4Oc4ccccc43)c2C#N)C1 (stereo not given) | inactive: 11.5% | 
39 | Cc1ccc(-n2c(=O)c3c(C)c(C)sc3n(CC(=O)NCc3ccccc3)c2=O)cc1C | inactive: 4.63% | 
40 | Cc1cc(C)cc(-n2c(SCC(=O)N3CCOCC3)nc3c([nH]c4ccccc43)c2=O)c1 | inactive: 7.98% | 

Row | Compound | activity change, negative = cytotoxicity | Potency
41 | Cc1ccc(CCNS(=O)(=O)c2c(C)nc3sc(C)c(C)n3c2=O)cc1 | inactive: 9.78% | 
42 | Cc1ccc(CNC(=O)c2ccc(CSCc3cccc(C)c3)o2)cc1 | inactive: 3.72% | 
43 | CC1CCN(S(=O)(=O)c2ccc3c(c2)N(CC(=O)NCCc2ccccc2)C(=O)CO3)CC1 | inactive: 21.8% | 
44 | COc1cccc(NC(=O)c2ccc3c(c2)CCN3S(C)(=O)=O)c1 | inactive: 17.3% | 
45 | Cc1noc(-c2ccc(NC(C)c3ccccc3)c([N+](=O)[O-])c2)n1 (stereo not given) | inactive: -0.587% | 
46 | COc1ccccc1NC(=O)c1ccc(CN2C(=O)C(C)=C(c3ccc(C)c(C)c3)S2(=O)=O)cc1 | inactive: -5.21% | 
47 | CC1(c2ccccc2)CC(C)(C)N(C(=O)c2cccc(Cl)c2)c2ccccc21 (stereo not given) | inactive: 12.6% | 
48 | Cc1cc2nn(-c3ccc(F)cc3)nc2cc1NC(=O)c1cccc2c(Cl)cccc12 | inactive: 13.8% | 
49 | CCOc1cc2c(cc1OCC)C(CC(=O)O)N(C(=O)Nc1ccccc1C(F)(F)F)CC2 (stereo not given) | inactive: 9.85% | 
50 | Cc1cc(C)nc(-n2nc(C)c3c2NC(=O)CC3c2cccc(O)c2)n1 (stereo not given) | inactive: -5.61% | 
51 | COc1cc(OC)c(NC(=O)Nc2cccc(OCc3cc(=O)n4ccccc4n3)c2)cc1Cl | inactive: 4.1% | 
52 | CCn1c(C)c(C)c2cc(C(=O)NCc3ccc(F)cc3)ccc21 | inactive: 19.9% | 
53 | COc1ccc(-n2cc(-c3ccccc3)c3c(Nc4ccc(OC)c(OC)c4)ncnc32)cc1 | inactive: -22% | 
54 | CCOC(=O)c1ccc2c(c1)N(Cc1ccc(F)cc1Cl)C(=O)c1ccccc1S2(=O)=O | inactive: 0.219% | 
55 | CCOC(=O)c1c(C)[nH]c(CCC(=O)NC(C)c2ccccc2)c1C (stereo not given) | inactive: 17.6% | 
56 | CCN(C(=O)c1sc2nc3n(c(=O)c2c1C)CCCCC3)c1ccc(OC)cc1 | inactive: 14% | 
57 | CCOC(=O)c1cn(CC(=O)Nc2ccc(OC)cc2OC)nn1 | inactive: 7.22% | 
58 | Fc1ccc(Nc2ncnc3onc(-c4ccc(Cl)cc4)c23)cc1Cl | inactive: -20.8% | 
59 | O=C(C1CCCN(S(=O)(=O)c2ccc(Br)s2)C1)N1CCN(c2ccccc2F)CC1 (stereo not given) | inactive: 12.5% | 
60 | CCOc1ccc(CCNC(=O)c2ccc3c(c2)N(Cc2ccc(C)cc2)CCS3)cc1 | inactive: 4.4% | 
